The values that follow come from ChEMBL document CHEMBL4888484, “Replenishing the malaria drug discovery pipeline: Screening and hit evaluation of the MMV Hit Generation Library 1 (HGL1) against asexual blood stage Plasmodium falciparum ,using a nano luciferase reporter read-out” (2022).

Molecules are shown by their SMILES. Among all 150,000 compounds or so, about 540 (0.36%) showed an effect of 50% or more. This is one part of the list.

In this assay the test system is Plasmodium falciparum. Description: Primary screen in NF54 nanoGlo assay, in single point, at 2uM, 72h; a lower Z score goes with more inhibition. The format is functional, Erythrocyte. The conditions noted are these: timepoint 72 hour.
On to `Cc1nc(-c2cc(C)on2)n(CCc2ccccc2)n1`, for which the “% Inhibition” value is -11% and the Z score was 1.44.
As for `CCOC(=O)N1CCN(C(=O)c2ccc3nsnc3c2)CC1`, the “% Inhibition” value was -4% and the Z score worked out at 0.56.
The corresponding values for `CN(Cc1nnc2n1CCC2)C(=O)c1ccc2c(c1)CCCC2` are -22% and 2.23.
With `CN(CCCC1CCCC1)c1cc([C@H]2CCOC2)nc(N2CC(O)C2)n1`, the “% Inhibition” value was -9% and the Z score was 0.96.
`CC(C)(C)OC(=O)N[C@@H]1C=C[C@H](CO)C1`: the “% Inhibition” value is on record as -7% and the Z score is recorded as 1.16.
`CCC1(CC)CN(C(=O)Cc2nnc(N)s2)CCO1`: the “% Inhibition” value was -3% and the Z score came to 0.59.
On to `CCOCCc1nc(CC(N)=O)nn1-c1cccnc1`, for which the “% Inhibition” value is given as -10% and the Z score turned out to be 1.73.
Regarding `Cc1cccc([C@H](C)NCCCCn2ccnc2C)c1`, the “% Inhibition” value is given as -4% and the Z score was determined as 0.35.
Regarding `CN1CCN(C(=O)NC2CCC(F)C2)CC1` (centres undefined), the “% Inhibition” value is given as -7% and the Z score was 0.74.
For `Cc1nccn1Cc1nnc([C@H]2CCCN(c3ccncc3F)C2)n1C` the same measures were -20% and 2.13.
Regarding `COc1ccccc1CNC(=O)Cn1nc2c(N3CCC(C)CC3)nccn2c1=O`, the “% Inhibition” value is given as -20% and the Z score is recorded as 1.94.
The corresponding values for `Cc1c(C#N)c(NC(=O)CNC(C)c2cccs2)n(CC2CCCO2)c1C` (centres undefined) are -5% and 0.4.
As for `Cc1ccc2nc(CNc3ccccc3)cc(=O)n2c1`, the “% Inhibition” value is -12% and the Z score came out at 1.17.
The corresponding values for `CC(C)Oc1ccccc1CN1CC(n2cc([C@H](C)O)nn2)C1` are -6% and 0.82.
For `O=C(Nc1ccccc1CN1C(=O)CCC1=O)c1cc2c(s1)CCCCC2` the same measures were -10% and 1.35.
With `CNc1snc(C)c1C(=O)N1CCC2(CC1)NC(=O)NC2=O`, the “% Inhibition” value was -5% and the Z score is recorded as 0.82.
With `C[C@H]1[C@@H](C(=O)OC(C)(C)C)CCCN1C(=O)c1cccnc1`, the “% Inhibition” value was -5% and the Z score is on record as 0.65.
For `O=C(NC[C@@]12CCCC=C1N(Cc1ccccc1)C(=O)CC2)c1ccncc1` the same measures were 8% and -1.21.
As for `CO[C@H]1[C@H](NC(=O)c2ccccn2)c2ccccc2C12CCN(C(=O)[C@@H](O)c1ccccc1)CC2`, the “% Inhibition” value is 8% and the Z score is -1.17.
As for `COc1cc(Br)cc(C)c1NC(=O)N[C@H]1CCCOC1`, the “% Inhibition” value is listed as 2% and the Z score is recorded as -0.27.
Regarding `Cc1ccc(CNC(=O)N2C[C@@H](Oc3ccccc3)C[C@@H]2C(=O)N2CCOCC2)cc1`, the “% Inhibition” value was -10% and the Z score is 1.96.
For `CC(=O)N1CCN(C(=O)CN2CC(C)CC2c2ccccc2F)CC1` (centres undefined) the same measures were -12% and 1.13.
Take `CCN(CC)c1cc(CCC(=O)N2CCCC2)ccn1`: the “% Inhibition” value is given as -11% and the Z score was 1.13.
The corresponding values for `Cc1ccc2c(c1)C(=O)N(CCC(=O)N(C)C1CCCC1)C2=O` are -1% and 0.13.
For `COCCOCCN[C@H]1CCCc2c(Cl)sc(Cl)c21`, the “% Inhibition” value is recorded as -10% and the Z score came to 1.03.
For `O=C1C[C@@H](C(=O)Nc2ccccc2Nc2ccc(F)cc2F)CCN1` the same measures were -8% and 0.91.
The corresponding values for `COc1cc(-c2nc3ccccc3s2)cc(Cl)c1OCC(=O)c1ccccc1` are -6% and 0.97.
Turning to `Cc1[nH]c(=O)[nH]c(=O)c1CC(=O)N1CCNC(=O)[C@@H]1c1cccc(F)c1`, the “% Inhibition” value is 11% and the Z score is -1.47.
For the compound `CC(C)CCOc1ccccc1CNC(=O)[C@@H]1CNC(=O)N1`, the “% Inhibition” value is recorded as -18% and the Z score was determined as 1.48.
The corresponding values for `O=C(NCC(=O)N1CC[C@H]2[C@H](C1)OCc1cnnn12)c1ccccc1` are -8% and 0.82.
For `O=C(NCc1cccnc1Oc1ccc(F)cc1F)[C@H]1CCCN1`, the “% Inhibition” value was -6% and the Z score was determined as 0.76.
The corresponding values for `COc1ncccc1CN1C(=O)COc2cccnc21` are 10% and -2.02.
The corresponding values for `O=C(CN1C(=O)CCn2nc(-c3cccc(Cl)c3)cc21)NCCN1CCCCC1` are 8% and -1.
Take `c1coc([C@H](CNc2cncc3nnnn23)N2CCCC2)c1`: the “% Inhibition” value is on record as -21% and the Z score is recorded as 2.14.
Consider `CN(C)C(=O)C1CCC(CNC(=O)c2n[nH]c3c2CCCCC3)O1` (centres undefined), for which the “% Inhibition” value is given as -9% and the Z score turned out to be 1.38.
As for `COCCOCc1nc([C@@H]2CCCN2S(=O)(=O)c2cc(F)ccc2F)no1`, the “% Inhibition” value is on record as -5% and the Z score was 0.62.
Consider `CN(c1cccc(C#N)c1)C1CCN(C(=O)C2CCS(=O)(=O)C2)C1` (centres undefined), for which the “% Inhibition” value is -1% and the Z score was 0.17.
For `CN1C[C@@H](CNc2nc3cccc(F)c3s2)CC1=O`, the “% Inhibition” value was -3% and the Z score was determined as 0.28.
With `NC(=O)CC(=O)Nc1ncc(-c2ccccc2F)s1`, the “% Inhibition” value is 4% and the Z score was -0.56.
The corresponding values for `CCOC(=O)C1(CNc2nc(C)c(S(N)(=O)=O)s2)CCCC1` are 0% and 0.
In the case of `O=C(Nc1ncc(Cc2ccc(F)cc2F)s1)c1cnc[nH]1`, the “% Inhibition” value is on record as -4% and the Z score turned out to be 0.69.
For `CCc1nnc(CNc2cc(C)c(C)c3ncccc23)s1` the same measures were 5% and -0.98.
For the compound `COc1ccc2cc1Oc1cccc(c1)CO[C@H]1CCN(C(=O)CCc3ccccc3)C[C@@H]1NC(=O)CN(CCCO)C2=O`, the “% Inhibition” value is given as -12% and the Z score is listed as 1.48.
For `CC1(C)CC(CN2CCn3c(n[nH]c3=O)C2)C1`, the “% Inhibition” value is recorded as -15% and the Z score came to 1.5.
For `CN(CC(F)(F)F)C(=O)c1ccoc1` the same measures were -13% and 1.84.
Turning to `Cc1c(-c2cccc(CN3CCCS3(=O)=O)c2)cnc2[nH]ccc12`, the “% Inhibition” value worked out at 30% and the Z score is recorded as -3.36.
Take `O=S(=O)(c1cccc2nonc12)N1CCc2[nH]c3ccc(F)cc3c2C1`: the “% Inhibition” value is reported as 3% and the Z score was -0.42.
Consider `Cc1[nH]c([C@H]2CC(=O)N(C3CCCC3)C2)nc1-c1ccc(F)cc1F`, for which the “% Inhibition” value was 0% and the Z score is on record as -0.02.
For `O=C(NC(CC(F)(F)F)c1ccc(Cl)cc1)C1CCOC1` (centres undefined) the same measures were -8% and 1.47.
Consider `CC(C)CCNS(=O)(=O)c1ccc(NS(=O)(=O)N(C)C)cc1`, for which the “% Inhibition” value is recorded as -3% and the Z score amounted to 0.3.
Take `O=C(Cn1ccc2ccccc21)N1C[C@H]2CC[C@@H](C1)N(CC1CC1)C2`: the “% Inhibition” value is -3% and the Z score is 0.53.
The corresponding values for `Cc1nc(N)nc(N2CCOCC2)c1CCOc1ccccc1` are 3% and -0.34.
For `Cc1cccc(NS(=O)(=O)c2cc3n(c2)CCCNC3=O)c1`, the “% Inhibition” value is listed as -14% and the Z score is on record as 1.58.
As for `Cc1ccc(-c2nnc(N3CCC(C(=O)NCC4CCCCC4)CC3)o2)cc1`, the “% Inhibition” value is reported as -6% and the Z score was determined as 0.89.
The corresponding values for `COc1cc(CN2C(=O)CC[C@@H]3CN(Cc4ccccc4)CC[C@@H]32)cc(OC)c1OC` are 8% and -1.04.
`Cc1nn(C)c(-n2cccn2)c1C(=O)NCc1ccccc1Cl` registered a Z score of 2.22.
`Cc1nn(C)c2nc(-c3cccnc3)nc(N(C)CCc3cn[nH]c3)c12`: the “% Inhibition” value is on record as 7% and the Z score is reported as -1.38.
For `c1ccc(-c2cn3c(n2)CO[C@@H](CNC2CCCC2)C3)cc1` the same measures were 17% and -1.94.
For `O=C([C@H]1CCCN(S(=O)(=O)N2CCCC2)C1)N1CCCn2nc(-c3ccc(F)cc3)cc2C1` the same measures were -2% and 0.34.
For `c1ccc2c(c1)CC(Cc1nc([C@H]3CCOC3)n[nH]1)C2` the same measures were -7% and 0.97.
`CCn1cc(CNC(=O)[C@@H](C)Cn2cncn2)c(C)n1`: the “% Inhibition” value is -5% and the Z score came to 0.88.
Turning to `Brc1cccc(-c2nnc(-c3n[nH]cc3NCc3ccc4c(c3)OCO4)[nH]2)c1`, the “% Inhibition” value was 2% and the Z score was -0.29.
With `O[C@]12CCCC[C@H]1CN(c1nc(C3CC3)nc3c1CCNCC3)CC2`, the “% Inhibition” value is given as -6% and the Z score is on record as 1.1.
For the compound `COc1ccc(CN2CC[C@H]2C(=O)NCCc2ccccn2)cc1`, the “% Inhibition” value is listed as -17% and the Z score is 2.28.
As to `CN(C)c1ccnc(CNS(=O)(=O)c2cccs2)n1`, the “% Inhibition” value is -7% and the Z score is given as 1.1.
For `Cc1ccc(NC(=O)C(=O)N(C)C(C)C)cc1OC(F)F` the same measures were -10% and 1.05.
For `Cc1cccc(CNC(=O)c2csc3cncn23)c1`, the “% Inhibition” value was found to be 0% and the Z score came out at 0.07.
The corresponding values for `CC(C)CN(Cc1cc(NC(=O)N(C)C)ccc1N(C)C)C(=O)c1ccco1` are -13% and 1.4.
In the case of `CNC(=O)c1cc(Oc2cccc(N[C@@H](C)C3CC(F)(F)C3)c2)ccn1`, the “% Inhibition” value was -8% and the Z score turned out to be 1.25.
On to `Cc1cnc(CN2C[C@]3(CCCN(C(=O)c4nccn4C)C3)CCC2=O)cn1`, for which the “% Inhibition” value is -12% and the Z score was 1.55.
`CCOc1cc(Cl)ccc1NC(=O)NCc1ccnn1C`: the “% Inhibition” value turned out to be 28% and the Z score is reported as -3.17.
With `CCCN(Cc1cc(NC(=O)NC(C)C)ccc1N(C)C)C(=O)C(C)C`, the “% Inhibition” value is -14% and the Z score was determined as 1.33.
Regarding `CCOc1ccccc1NC(=O)[C@H](C)S(C)(=O)=O`, the “% Inhibition” value is reported as -9% and the Z score was 1.8.
The corresponding values for `Cc1cccc(OCc2nc(CN(CCN3CCOCC3)C(=O)C(C)C)cs2)c1` are -11% and 1.45.
The corresponding values for `CCNC(=O)N1CCC(n2cnc3cnccc3c2=O)CC1` are -13% and 1.14.
Consider `O=C(c1cccc(Oc2ccccc2)c1)N1CC[C@@]2(O)CCNC[C@H]2C1`, for which the “% Inhibition” value is recorded as -16% and the Z score was found to be 1.63.
As to `CCc1noc([C@H](C)NC(=O)c2cnc(OC)nc2)n1`, the “% Inhibition” value turned out to be 9% and the Z score is recorded as -0.79.
The corresponding values for `Cc1ccnc([C@H](C)NS(=O)(=O)c2occc2Br)n1` are 9% and -1.64.
On to `O=C(c1cnnn1-c1ccccc1)N1CCC(O)(CO)CC1`, for which the “% Inhibition” value is listed as -9% and the Z score is listed as 0.83.
The corresponding values for `Cc1cnc(N2CCO[C@H](c3ccco3)C2)c(Br)c1` are -9% and 1.22.
The corresponding values for `CCO[C@H]1CCOC2(CCN(C(=O)COc3ccccc3)CC2)C1` are -14% and 2.56.
As to `O=C(NCc1ccc(-n2cncn2)nc1)C1CC2CCC1C2` (centres undefined), the “% Inhibition” value is on record as 1% and the Z score was -0.18.
The corresponding values for `CC(C)Oc1cccc(C(=O)[C@H]2CCCN(Cc3cccc4c3OCO4)C2)c1` are 8% and -1.15.
In the case of `Cc1c(-c2cnn(C)c2)nc(N)c(C#N)c1-c1cc(CN(C)C)cs1`, the “% Inhibition” value is 27% and the Z score is -2.53.
The corresponding values for `COCCn1c(-c2ccccn2)nc2cc(NC(C)=O)cc(C(=O)N[C@H]3CCCc4ccccc43)c21` are 3% and -0.36.

For orientation: % Inhibition means the relative decrease from the control value, in per cent.
